Measured values reported in PubChem BioAssay AID1948 (National Center for Advancing Translational Sciences (NCATS), 2009).
About 20 (0.02%) of roughly 110,000 compounds were called active. Inconclusive means that the source gave no clear call. Such entries were picked first, then a sample of the others. The call rests on the fitted dose curve; in most records, active means well fitted activation curve with a large enough effect; inconclusive means small, poorly fitted or top-dose-only effect; inactive means no such curve, though single readings can be large or run the other way. No potency is given beside an inconclusive call; the fits are too rough.

assay: qHTS Assay for Compounds that Induce Erasure of Genomic Imprints; conditions: mouse ES Peg3-LacZ reporter, beta-gal luminescence, 40 h; activity change, positive = activation: at 10.9 µM (top of the series) unless noted;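 on activity change, positive = activation: 0% = negative control wells on the plate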
Procedure, shortened: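 Imprint erasure is scored as LacZ activity from the silenced maternal Peg3 allele in feeder-free female ES cells cultured 40 h with LIF. Luminescence is normalized to in-plate negative controls and fitted to the Hill equation.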
Potency means the concentration at half of the fitted maximal effect; tags describe the fitted curve by direction and shape.

| Compound | activity change, positive = activation | Potency |
| --- | --- | --- |
| COc1cccc(N2CCN(C(=O)CCCCCn3c(=O)[nH]c4ccccc4c3=O)CC2)c1 | inconclusive: 50.2% [activator] | – |
| COC(=O)CCCC(=O)O | – | inconclusive [activator, single point] |
| CCn1nnc2cc(C(=O)Nc3ccc(C)c(Cl)c3)ccc21 | inconclusive: 47.1% [activator] | – |
| COc1ccc2[nH]cc(CCNc3ncnc4ccc(-c5cccnc5)cc34)c2c1 | – | inconclusive [activator, single point] |
| CC(=O)c1ccc(N2CCN(S(=O)(=O)c3cc(-c4noc(C)n4)ccc3C)CC2)cc1 | inconclusive: 32.8% [activator] | – |
| COc1ccccc1OCc1nc(C#N)c(NCc2ccc(C)cc2)o1 | inconclusive: 47.3% [activator] | – |
| Cc1ccc(CSCCC(=O)NCc2ccc(F)cc2Cl)cc1 | inactive: -0.233% | – |
| CC(CCc1ccccc1)NC(=O)CSc1n[nH]c(-c2ccc(F)cc2)n1 (configuration not stated) | inactive: 8.64% | – |
| O=c1c(-c2cccs2)nc2cnc(N3CCOCC3)nc2n1Cc1cccs1 | – | inconclusive [activator, single point] |
| CSc1ccc(-c2nnn(Cc3ccccn3)n2)cc1 | – | inconclusive [activator, single point] |
| CC(C)C[C@H](NC(=O)NC(C)C)C(=O)O | – | inconclusive [activator, single point] |
| COc1ccc2nc(NC(=O)CN(c3ccc(C)cc3)S(=O)(=O)c3c(C)nn(C)c3C)sc2c1 | – | inconclusive [activator, single point] |
| Cc1nn(Cc2ccccc2)c2sc(C(=O)N3CCN(Cc4ccc5c(c4)OCO5)CC3)cc12 | inactive: -19.4% [at 60.7 µM] | – |
| CC(C)Oc1ccc(C(=O)Nc2nnc3n2CCS3)cc1 | inactive: -69.2% | – |
| Cc1nc2nc(Cc3ccccc3)nn2c(C)c1Cl | inactive: -44.6% [at 60.7 µM] | – |
| Cn1cc(-c2nc3cnc(OCc4ccccc4)nc3n(CCC#N)c2=O)c2ccccc21 | inactive: -0.619% [at 60.7 µM] | – |
| O=C(c1cc(-c2cccc(Cl)c2)on1)N1CCCCC1 | inconclusive: 46% [activator] | – |
| Cc1ccc(NC(=O)c2oc3ccc(S(=O)(=O)N4CCCCCC4)cc3c2C)c(C)c1 | inconclusive: 35% [activator] | – |
| c1ccc(-c2csc3ncn4cnnc4c23)cc1 | inactive: -3.56% [at 60.7 µM] | – |
| CCCC(=O)Nc1cccc(-c2cn3cccnc3n2)c1 | inconclusive: 48.9% [activator] | – |
| Cc1ccccc1NC(=O)Cn1c(=O)n(Cc2ccc3c(c2)OCO3)c(=O)c2ccc(C(=O)NC3CCCCC3)cc21 | inactive: -13.5% | – |
| Cc1ccc(OCC(O)Cn2c(=N)n(CCN3CCOCC3)c3ccccc32)cc1 (configuration not stated) | inactive: -12.7% [at 60.7 µM] | – |
| CCCc1cnc2c(c1SCC(=O)Nc1c(C)cc(C)cc1C)c(=O)n(C)c(=O)n2C | inconclusive: 51.4% [activator] | – |
| COc1ccc2c(c1)c1c(c(=O)n(Cc3ccccc3)c(=O)n1CC(=O)NCc1ccc(C)cc1)n2C | inconclusive: 35.8% [activator] | – |

| Compound | activity change, positive = activation | Potency |
| --- | --- | --- |
| CCC(=O)N1CCc2cc(S(=O)(=O)CCC(=O)N3CCN(c4cccc(Cl)c4)CC3)ccc21 | inconclusive: 42.6% [activator] | – |
| CSc1ccc(C(=O)Nc2ccc(-c3nc4ccccc4s3)c(O)c2)cc1 | inconclusive: 38.5% [activator] | – |
| N#Cc1cccc(-c2ccc3ncnc(NC4CCNCC4)c3c2)c1 | – | inconclusive [activator, full curve, poor fit] |
| COc1ccccc1CNC(=O)c1ccc(CSc2nc3ccncc3n2Cc2ccccc2C)cc1 | inactive: -16.6% | – |
| CCC(=O)Nc1nc2ccc3nc(C)sc3c2s1 | – | inconclusive [activator, partial curve] |
| CCc1nc2oc(C(=O)c3ccccc3)c(N)c2c2c1COC(C)(C)C2 | inactive: 4.85% [at 60.7 µM] | – |
| Fc1ccc([C@@H]2Nc3ccccc3[C@@H]3C=CC[C@@H]32)cc1 | inactive: 16.8% | – |
| CCCCCCCC/C=C\CCCCCCCC(=O)O | – | inconclusive [activator, single point] |
| CC(C)(C)NCC(O)c1ccc(O)c(CO)c1 (configuration not stated) | – | inconclusive [activator, single point] |
| COc1ccc(-c2nc(CCNC(=O)c3c(F)cccc3Cl)cs2)cc1 | inconclusive: 53.8% [activator] | – |
| COc1cc(CN(C(=O)COc2ccccc2Cl)c2ccccn2)cc(OC)c1OC | inconclusive: 76.7% [activator] | – |
| COc1ccc(-c2oc3ncnc(NCCN4CCOCC4)c3c2-c2ccc(OC)cc2)cc1 | – | inconclusive [activator, single point] |
| COc1cccc(-c2[nH]c3c(c2-c2c(-n4cccc4)n(C)c(=O)[nH]c2=O)c(=O)[nH]c(=O)n3C)c1 | inconclusive: 167% [activator] | – |
| Cc1cn(C)c(CC(=O)N2CCN(c3ccc(F)cc3)CC2)c1C(=O)O | inactive: -7.77% | – |
| COc1cccc(NC(=O)c2sc3nc(C)c(C(=O)Nc4ccc(C)cc4C)c(-c4cccs4)c3c2N)c1 | inconclusive: 59.7% [activator] | – |
| O=C(CC1Oc2ccccc2NC1=O)NCc1ccc(F)cc1 (configuration not stated) | inconclusive: 39.8% [activator] | – |
| Cc1ccc(Nc2nc(C(N)=O)c(NC(=O)c3ccccc3Br)s2)cc1 | inconclusive: 40% [activator] | – |
| Cc1ccc2c(CC(=O)Nc3c(C(=O)c4ccc(F)cc4)oc4ccccc34)coc2c1C | inconclusive: 31.8% [activator] | – |
| Cc1ccc(N2CC(C(=O)N3CCCc4ccccc43)CC2=O)cc1 (configuration not stated) | – | inconclusive [activator, single point] |
| O=C(Nc1cccc2c1CCCC2)C1CCN(c2nnnn2-c2ccccc2)CC1 | – | inconclusive [activator, single point] |
| COc1ccc(N(C)C(=O)c2oc(=O)c3ccccc3c2-c2ccc(C)cc2)c(OC)c1 | inconclusive: 30.7% [activator] | – |
| Cc1ccc(Cn2ccc(NC(=O)c3nc4ncccn4n3)n2)cc1 | – | inconclusive [activator, full curve] |
| CCN(CC)CCNC(=O)CN1C(=O)CSc2ccc(S(=O)(=O)N3CCOCC3)cc21 | inconclusive: 81.4% [activator] | – |
